# Results from PubChem BioAssay AID463173 (ICCB-Longwood Screening Facility, Harvard Medical School, 2010).
# The campaign covered roughly 52,000 compounds. About 1,700 (3.3%) were called active. Cut-off read from the data, not from the text of the source: active = survival mostly below about 52% (no sharp cut-off); inactive = mostly above about 56%. The list shows a part of the results.
# Test system: Wild type
# Experiment: growth inhibition of S. aureus wild type versus tarO mutant, primary screen, teichoic acid synthesis inhibitors, RN4220, OD600 (AID 463173)
# Conditions: S. aureus RN4220 wild type/DeltatarO growth, OD600, 18 h, hits give low values, screened at 18.75 µg/mL (by protocol)
row,Compound,survival
1,CCn1c2c(c(=O)n3ncc(C(=O)Nc4ccc(C(=O)OC)cc4)c13)CN(Cc1ccc(OC)cc1)CC2,inactive: 55%
2,COc1ccc(C)cc1NC(=O)c1ccc2nc(Cc3ccccc3)oc2c1,inactive: 128%
3,COc1ccc(CCNC(=O)c2c(O)nc3c(C)cccn3c2=O)cc1OC,inactive: 89%
4,CCn1c(CN2CCCCC2)nc2cc(NC(=O)COc3ccccc3C(C)(C)C)ccc21,inactive: 122%
5,Cc1coc2c1c(C)cc1oc(=O)c(CC(=O)NCCc3ccc(Cl)cc3)c(C)c12,inactive: 87%
6,O=C(Cn1c(SCC(=O)N2CCc3ccccc32)nc2ccccc21)NC1CC1,inactive: 107%
7,Cc1c(C(=O)NCc2ccccc2)oc2ccc(S(=O)(=O)N3CCC(C)CC3)cc12,inactive: 65%
8,O=C(NCCc1ccc(Cl)cc1)C(=O)NCC(c1ccco1)S(=O)(=O)c1ccccc1 (stereo unspecified),inactive: 133%
9,Cc1ccc(NC(=O)C(=O)NCC(c2cccnc2)N2CCN(C)CC2)cc1 (stereo unspecified),inactive: 87%
10,COc1ccc(N2CCN(C(=O)CSc3nc4ccccc4nc3Cc3ccc(Cl)cc3)CC2)cc1,inactive: 88%
11,COc1ccc(N2CCN(C(=O)c3cc(-c4ccc(C)c(F)c4)on3)CC2)cc1,inactive: 106%
12,Cc1c(C(=O)NCCc2ccc(Cl)cc2)cccc1-n1cnc2cccnc21,inactive: 80%
13,COc1ccc(NC(=O)c2c(N)c(C(=O)c3ccc(OC)cc3)n3ccccc23)cc1,inactive: 103%
14,CCOC(=O)c1cc2sccc2n1CC(=O)N1CCCC1,inactive: 106%
15,CCn1c2ccccc2c2cc(CN3CCN(Cc4ccc(OC)c(OC)c4)CC3)ccc21,active: 14%
16,CCOc1ccc(CC(=O)NCCS(=O)(=O)N2CCN(c3ccc(OC)cc3)CC2)cc1,inactive: 70%
17,COc1ccc(-c2[nH]c(-c3ccccc3)nc2SCC(=O)NC2CCCC2)cc1,inactive: 80%
18,COc1ccc(CCNC(=O)c2cc3c(=O)n(C)c4cc(Cl)ccc4c3s2)cc1OC,inactive: 69%
19,CCC1CN(C(=O)NCc2cccc(OC)c2)c2ccccc2O1 (stereo unspecified),inactive: 84%
20,O=S1(=O)c2ccccc2N(Cc2ccccc2Cl)c2ccccc21,inactive: 80%
21,COc1ccc(Nc2nc(N)nc(CSc3nc4ccccc4s3)n2)cc1,inactive: 35%
22,COc1cccc(NC(=O)C(=O)NCCc2sc(-c3cccc(C)c3)nc2C)c1,inactive: 129%

row,Compound,survival
1,CCN1C(=O)c2ccccc2Sc2ccc(NC(=O)Nc3ccc(Br)c(C)c3)cc21,inactive: 82%
2,COc1ccc(-c2cc(NCc3ccc(C)cc3)n3cnnc3n2)cc1,inactive: 112%
3,Cc1ccc(-c2ccc(=O)n(CC(=O)NC(C)c3ccccc3)n2)cc1 (stereo unspecified),inactive: 88%
4,O=C(O)CN1C(=O)/C(=C\c2ccccc2)SC1=S,inactive: 102%
5,Cc1ccccc1NC(=O)Cn1c(=O)n(CCCCC(=O)NCc2ccccc2Cl)c(=O)c2ccccc21,inactive: 101%
6,CCOC(=O)c1c(S(=O)(=O)N2CCC(C(=O)Nc3cccc(C#N)c3)CC2)c(C)n(C)c1C,inactive: 115%
7,Cc1c(C(=O)OC2CCCCCC2)[nH]c2c1C(=O)CC(c1ccccc1Cl)C2 (stereo unspecified),inactive: 95%
8,CCN(CC)S(=O)(=O)c1ccc(C(=O)NC2CC(=O)N(c3ccc4c(c3)OCCO4)C2)cc1 (stereo unspecified),inactive: 74%
9,O=C(CN1C(=O)COc2ccc(S(=O)(=O)Nc3ccccc3)cc21)NCc1ccccc1Cl,inactive: 73%
10,O=C(CSc1nc2c(c(=O)[nH]1)CN(Cc1ccc(F)cc1)CC2)Nc1cccc(C(F)(F)F)c1,inactive: 59%
11,COc1ccc(NC(=O)Cn2c(=O)n(CCc3ccccc3)c(=O)c3sc4ccccc4c32)cc1,inactive: 87%
12,Cc1cc(C)nc(-n2nc(C)c3c2NC(=O)CC3c2ccccc2OC(C)C)n1 (stereo unspecified),inactive: 82%
13,CCOC(=O)c1ccc(N2C(=O)c3[nH]nc(-c4ccccc4)c3C2c2cccs2)cc1 (stereo unspecified),inactive: 129%
14,COc1ccc(CCNc2nc(SCc3ccccc3Cl)nc3ccccc23)cc1OC,inactive: 99%
15,COc1cc(Cl)c(NS(=O)(=O)c2ccc3[nH]c(=O)ccc3c2)c(OC)c1,inactive: 66%
16,CCC1CCCCN1C(=O)Cn1c(=O)n(-c2ccccc2C(F)(F)F)c(=O)c2c(C)c(C(=O)N(C)C)sc21 (stereo unspecified),inactive: 77%
17,Cc1ccc(C)c(NC(=O)C2CCCN(S(=O)(=O)c3cccc4nsnc34)C2)c1 (stereo unspecified),inactive: 74%
18,COc1ccc(C2CC(=O)c3c([nH]c(C(=O)OC4CCCC4)c3C)C2)cc1OC (stereo unspecified),inactive: 133%
19,CCOc1ccc(OCC)c(NC(=O)CN(c2ccc(C)cc2)S(=O)(=O)c2c(C)n[nH]c2C)c1,inactive: 42%
20,CCOc1ccc(NC(=O)C(CC)n2nc(-c3ccc(C)c(C)c3)ccc2=O)cc1 (stereo unspecified),inactive: 79%
21,N#CC1C(C#N)N2CCCN2C1c1ccc(Cl)cc1 (stereo unspecified),inactive: 108%
22,Cc1ccc(NC(=O)Cn2c(=O)n(Cc3nc(-c4ccccc4)no3)c(=O)c3cc4c(cc32)OCO4)cc1C,inactive: 85%

row,Compound,survival
1,COc1ccccc1N1CCN(C(c2ccccc2)c2nnc(-c3ccccc3Cl)o2)CC1 (stereo unspecified),active: 0%
2,CCCNC(=O)c1cc2n(n1)CCCN(Cc1ccc(F)cc1)C2=O,inactive: 79%
3,O=C(c1ccc2c(c1)N(Cc1ccccc1F)C(=O)c1ccccc1S2(=O)=O)N1CCCCCC1,inactive: 85%
4,COc1cccc(C(=O)c2sc(Nc3ccc(C)cc3C)c(S(=O)(=O)c3ccccc3)c2N)c1,inactive: 94%
5,COc1ccc(-c2csc3ncnc(Nc4ccc(OC)c(OC)c4)c23)cc1,inactive: 88%
6,CCOc1ccc(CCNC(=O)c2ccc(Cn3c(=O)c4cccn4c4cccnc43)cc2)cc1,inactive: 116%
7,Cc1cc(N2CCCCC2)nc2ccc(NC(=O)CCC(=O)N3CCN(c4cccc(Cl)c4)CC3)cc12,inactive: 62%
8,CCN(C(=O)Cn1c(SCc2ccccc2F)nc2cccnc21)c1ccccc1,inactive: 95%
9,CCOC(=O)c1sc(N2C(=O)c3oc4ccc(F)cc4c(=O)c3C2c2cccc(OC)c2)nc1C (stereo unspecified),inactive: 75%
10,O=C(CSCc1nc2cccnc2n1C1CCCCC1)NCc1cccc(Br)c1,inactive: 119%
11,O=C(OCc1ccccc1)c1ccc(-c2nnn(Cc3ccccc3F)n2)cc1,inactive: 65%
12,CCOc1ccc(CCNC(=O)c2ccc3[nH]c(C)c(C)c3c2)cc1,inactive: 143%
13,Cc1ccc2scc(N3CCN(c4ccccc4)CC3)c(=O)c2c1,inactive: 74%
14,O=C(C1COc2ccccc2O1)N(Cc1cccnc1)c1nc2ccc(F)cc2s1 (stereo unspecified),inactive: 72%
15,N/C(=N\c1nc2c(c(=O)[nH]1)CCC2)Nc1cccc(Cl)c1,inactive: 116%
16,O=C(CSc1nc(-c2ccco2)nc2cc(=O)[nH]n12)Nc1ccccc1Cl,inactive: 45%
17,COC(=O)C1=C(C)C(c2ccccc2OC)NC(=O)N1 (stereo unspecified),inactive: 115%
18,O=C(Cn1c(=O)oc2ccccc21)NCc1ccccc1Cl,inactive: 70%
19,Cc1ccc(C)c(N2CCN(CCCNC(=O)Cn3c(-c4cccs4)cc4ccccc43)CC2)c1,inactive: 71%
20,COc1ccc(-n2c(-c3ccc(F)cc3)cn3c4c(=O)n(C)c(=O)n(C)c4nc23)cc1,inactive: 63%
21,CCOc1ccc2ncc3c(-c4ccccc4)nn(CC(=O)Nc4cccc(F)c4)c3c2c1,inactive: 81%
22,Cc1nn(-c2nc3ccccc3[nH]2)c(N)c1-c1ccccc1,inactive: 81%

row,Compound,survival
1,COc1ccccc1CNC(=O)Cn1c(=O)oc2ccccc21,inactive: 62%
2,CCCn1cc(S(=O)(=O)c2cccc(Cl)c2)c(=O)c2cc(F)c(N3CCN(CC)CC3)cc21,inactive: 111%
3,CCCCn1c(SCC(=O)N2CCCCCC2)nnc1-c1ccoc1C,inactive: 98%
4,COc1cc2[nH]c(=O)n(CCCC(=O)NCc3ccccc3Cl)c(=O)c2cc1OC,inactive: 79%
5,COCCCNC(=O)C1CCN(c2nnc(-n3cccc3CNc3ccc(C)cc3)s2)CC1,inactive: 72%
6,Cc1cc(OCCn2c(C3CC(=O)N(Cc4ccc(F)cc4)C3)nc3ccccc32)ccc1Cl (stereo unspecified),active: -15%
7,O=C(CSc1nc2c(c(=O)[nH]1)CCCC2)Nc1cccc(O)c1,inactive: 80%
8,COCCCNC(=O)Cn1c(=O)n(-c2cccc(C)c2)c(=O)c2c3c(sc21)CN(C(C)=O)CC3,inactive: 76%
9,COC(=O)c1ccccc1NC(=O)CSc1nc2sc3c(c2c(=O)[nH]1)CCCC3,inactive: 70%
10,O=C(CN1C(=O)C2CCCCN2c2ccc(C(=O)N3CCCC3)cc21)NCc1ccccc1 (stereo unspecified),inactive: 77%
11,COc1cccc(CNC(=O)Cn2cc3c(n2)-c2c(oc(C(=O)N4CCOCC4)c2C)CC3)c1,inactive: 85%
12,COc1ccc(S(=O)(=O)N2Cc3ccccc3CC2C(=O)Nc2cccc(C)c2)cc1OC (stereo unspecified),inactive: 75%
13,CCCCn1c(CCNC(=O)c2ccc(F)cc2)nc2ccccc21,inactive: 65%
14,COc1ccccc1CNc1nc(-c2ccco2)nn1C(=O)c1ccccc1[N+](=O)[O-],inactive: 80%
15,COc1ccc(-c2cc(C(F)(F)F)nc(S(=O)(=O)CCCC(=O)Nc3ccccc3C(F)(F)F)n2)cc1OC,inactive: 89%
16,c1ccc(CCNc2ccccc2)cc1,inactive: 111%
17,CN(C)c1ccc(CNc2nc(-c3ccco3)nn2S(=O)(=O)c2ccc(Cl)cc2)cc1,inactive: 109%
18,Cc1cc(=O)n2c(C(=O)Nc3ccc(C)c(C)c3)c(C(=O)Nc3ccccc3)sc2n1,inactive: 69%
19,CCc1cccc(C)c1NC(=O)C1CCCN(S(=O)(=O)c2cccc3nsnc23)C1 (stereo unspecified),inactive: 88%
20,NC(=O)C1CCCN1S(=O)(=O)c1ccc(F)cc1 (stereo unspecified),inactive: 110%
